First the molecules themselves.
T1: UNK ZnF1-6 (called full-length) (human, UniProt Q9C0B0 30-357)
T1 sequence: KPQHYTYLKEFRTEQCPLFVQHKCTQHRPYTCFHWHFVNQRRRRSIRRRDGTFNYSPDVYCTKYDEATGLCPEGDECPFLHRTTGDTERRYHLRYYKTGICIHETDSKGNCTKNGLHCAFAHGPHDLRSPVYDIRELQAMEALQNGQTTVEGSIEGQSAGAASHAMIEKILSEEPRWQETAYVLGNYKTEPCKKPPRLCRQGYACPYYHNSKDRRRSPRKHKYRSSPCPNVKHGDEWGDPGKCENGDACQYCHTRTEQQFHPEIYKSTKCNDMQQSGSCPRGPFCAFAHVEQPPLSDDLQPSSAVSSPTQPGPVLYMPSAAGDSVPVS

B1: ENSG00000198589:be:win_3851|CDS|ENSG00000198589|bound_else_gene|NA|bound_elsewhere_windowed (ssRNA)
RNA: GGGAGUUCUACAGUCCGACGAUCGGCAAGGAAUAGCACCAGAUGCAGUUAAUGGACAAAGGAGGGAUUCCAGAUCUACUGUGUUUCGUAUUCCUGAGUUCAACUGGUCUCAGAUGCAUCAACGUUUGCUCACUGAUCUAUUAUCAACAGAGGAUUGAGCAUCA
B2: chr3:31579932:31580050:+|CDS|ENSG00000163527|unk|total|mutant (ssRNA)
RNA: GGGAGUUCUACAGUCCGACGAUCUACAUCUAUAUCUACUUUCCUGCUUACAAGAGAACUUUGGAACCAAGGAGCAGGACUUUCCGCUGCUUGUUUUAUUGCUAUUGUACCAGGCUACAUAUCUCGGUCAGCCGCUGGAUCCUUCAACAGAGGAUUGAGCAUCA
B3: chrX:40074726:40074839:-|CDS|ENSG00000183337|unk|FALSE|unique (ssRNA)
RNA: GGGAGUUCUACAGUCCGACGAUCGCGCUGGGCUUGGACAGGCCUGCCAGCGACAAACAGAGCCCUCUCAACAUCAAUGGUGCUAGUUAUCUGCGGCUGCCCUGGGUCAAUCCUUACAUGGAGGGUGCCACGCCAGCCAUCUACCAACAGAGGAUUGAGCAUCA
B4: ENSG00000034677:stop:overlap|stop_codon|ENSG00000034677|stop_codon|NA|stop_codon (ssRNA)
RNA: GGGAGUUCUACAGUCCGACGAUCCAAAUAACAACCACUCACAUCAGACAAUGGAAUUAAAAGUUGCAAUUCAGACUGAAAUUUAGGCCCAUAAAUGCUGCAGAAUAAUUACCACUGUACAACCGUGUUUGGAGCUGGUUGAACCAACAGAGGAUUGAGCAUCA
B5: chr8:23843870:23844003:-|3pUTR|ENSG00000159167|msi1|total|mutant (ssRNA)
RNA: GGGAGUUCUACAGUCCGACGAUCAAUUCCAGAGGACUCUGCUUAAACAAAGCAGUAUAUAAUAACUUUAUUGCAUACCGAUUCCGUUUUGUAACUCCGCUUUAUUUUUCUUUUCCUGGGAAUGGAAUAACUAUCUCACUUCCACAACAGAGGAUUGAGCAUCA
B6: chr1:9850293:9850394:-|3pUTR|ENSG00000178585|unk|total|mutant (ssRNA)
RNA: GGGAGUUCUACAGUCCGACGAUCCGGUAUCUGGCUUCCCUGGAAGCUCUCCGAGCUCUGGUGCUUCCGUCCGGUCAUUUUUUCCGAAAUGUGAAGAGGUCUGAUUGGCUGCUUAAACUGGAAAGGAUCUGUGAUUGGCUGGUUCAACAGAGGAUUGAGCAUCA
B7: chr8:41263332:41263433:-|3pUTR|ENSG00000104332|msi1|total|mutant (ssRNA)
RNA: GGGAGUUCUACAGUCCGACGAUCCAGCAUGCCCGCCCCGUUACCUACCGGAGAGUUAUCCUGAUAAAUUAACCUCUCACAGUCCGUGAUCCUGUCCUUUUAACACCUUUUUUGUGGGGUUCUCUCUGACCUUUCAUCGUAAAGCAACAGAGGAUUGAGCAUCA
B8: ENSG00000198589:be:win_851|CDS|ENSG00000198589|bound_else_gene|NA|bound_elsewhere_windowed (ssRNA)
RNA: GGGAGUUCUACAGUCCGACGAUCAAGGCUUUCAACACUGUGUGAAAUUUGAUUUCAAGCCACAAAAGUGGUAUAUGGUUACCAUAGUACACAUCUAUAACCGAUGGAAGAAUAGUGAACUUCGAUGUUAUGUGAAUGGUGAGCCAACAGAGGAUUGAGCAUCA
B9: chr6:150018333:150018855:-|three_prime_utr|ENSG00000155918|control|control|control (ssRNA)
RNA: GGGAGUUCUACAGUCCGACGAUCACCACCUACGGUGUAUGUCCAGCAGCCUCCAGCAGAUGAUGAUGACACCAUGGACCCAAUAGCUCAUUCACUGCCUUGAUUCCUUUUGCCAACAAUUUAACCAGUGAUUAUUCCUAACAUCAACAGAGGAUUGAGCAUCA
B10: chr10:60026297:60029826:-|three_prime_utr|ENSG00000151150|control|control|control (ssRNA)
RNA: GGGAGUUCUACAGUCCGACGAUCAAUGGCAUGAUUUUUUUUAUGCAAAAAGAAAAGAAAAGAAAACCACCCACAUUUUAAUUUAGCAUGAGCCAAUUUACAGAGCAUGGAAAUCACUUUCAUUUCCGGAUUGGCGCGUGUGCACAACAGAGGAUUGAGCAUCA
B11: chr13:106491723:106491923:-|3pUTR|ENSG00000125266|msi1|FALSE|unique (ssRNA)
RNA: GGGAGUUCUACAGUCCGACGAUCCAGACUCAGCUGCUAUACUUAUCACAUUUUAUUAAACACAGGGAAAGCAUUUAGGAGAAUAGCAGAGAGCCAAAUCUGACCUAAAAGUUGAAAAGCCAAAGGUCAAACAGGCUGUAAUUCCAACAGAGGAUUGAGCAUCA
B12: ENSG00000105894:stop:overlap|stop_codon|ENSG00000105894|stop_codon|NA|stop_codon (ssRNA)
RNA: GGGAGUUCUACAGUCCGACGAUCCCAAACCUCAAGAGAAGGGAAAAUGGAGACACAGGAGUGGGGAGAGUUUGAGAAGAUGGUAGAGAGGAGUGUUUGGGUGAAGGGAGAUGGAUUCGUCUACUGAUGCAACUGCAGAAUCUACAACAGAGGAUUGAGCAUCA
B13: ENSG00000163346:stop:overlap|stop_codon|ENSG00000163346|stop_codon|NA|stop_codon (ssRNA)
RNA: GGGAGUUCUACAGUCCGACGAUCAGAGCCUGCCUUCAACCCCCAAAGCAGUCACCUCACUGCCCUGUCCCUGUCCUUUCCCCUAGCUUGGAUCAGGGAGGAGGGCCGCUGCUCCAGCAGUGACGAUGACACCGACGUGGACAUCAACAGAGGAUUGAGCAUCA
B14: chr17:35577220:35577322:-|CDS|ENSG00000108733|unk|total|mutant (ssRNA)
RNA: GGGAGUUCUACAGUCCGACGAUCUCUAUUAUGUUCCUGGUUCUUCUUCCCUAUCUGAAAGUGAAGCUGGAGAAGCUGGUUUCCCGCCUGAGAGAAGAGGAUGAAUAUUCUAUUCAUCCCCCUUCUUCCCGCUGGAAACGAUUUCAACAGAGGAUUGAGCAUCA
B15: chr13:106491261:106491362:-|3pUTR|ENSG00000125266|msi1|FALSE|unique (ssRNA)
RNA: GGGAGUUCUACAGUCCGACGAUCACAAUAAUGAGAGCAAAUGCAAAAAUAACCAAGUCCUCCGAAGGCAUCUCACGGAACCGUAGACUAGGAAGUACGAGCCCCACAGAGCAGGAAGCCGAUGUGACUGCAUCAUAUAUUUAACAACAGAGGAUUGAGCAUCA
B16: chr4:56809860:56810169:-|three_prime_utr|ENSG00000128040|control|control|control (ssRNA)
RNA: GGGAGUUCUACAGUCCGACGAUCCCCUGCUGAUGGAGCAGUUUACAGAAAAGAAGAUGGAGAGACCACCUUCACUGGCAGACUAGAUAAAUUGCAUUUCCCCUUUUUCUCUUUUCCUGUGUUUCUUUACAUGAGAUUUGUUAACAACAGAGGAUUGAGCAUCA
B17: ENSG00000143401:stop:overlap|stop_codon|ENSG00000143401|stop_codon|NA|stop_codon (ssRNA)
RNA: GGGAGUUCUACAGUCCGACGAUCGUCUUCGAGGGGAGAAGAGGAAACGAGAUGCUGAAGACGAUGGAGAGGAAGAAGAUGACUAGAUCAUUCUAAGACCAGAUUCUCUAAUGUUUCUGGGUGUGCAAUAGAGUGAUCACAUCUCAACAGAGGAUUGAGCAUCA
B18: chr11:613205:613595:-|three_prime_utr|ENSG00000185507|control|control|control (ssRNA)
RNA: GGGAGUUCUACAGUCCGACGAUCCUGCACGUUCCUAUACGGCCCCCCAGACCCAGCUGUCCGGGCCACAGACCCCCAGCAGGUAGCAUUCCCCAGCCCUGCCGAGCUCCCGGACCAGAAGCAGCUGCGCUACACGGAGGAACUCAACAGAGGAUUGAGCAUCA
B19: chr3:120395571:120395798:-|3pUTR|ENSG00000163430|msi1|total|mutant (ssRNA)
RNA: GGGAGUUCUACAGUCCGACGAUCUGGUUCUGAUCAUUGGUCCAGAGGGGAGACCGGUUCCUGUGAUUUUUCCUUCUUCUCUACCGAAUAAAUGAAAUCUUGUUACCCGAACAAGAAAUGUCAGAUGGCCAAAAACAAGAUGACCAACAGAGGAUUGAGCAUCA
B20: chr16:88813726:88813828:-|3pUTR|ENSG00000141012|unk|FALSE|unique (ssRNA)
RNA: GGGAGUUCUACAGUCCGACGAUCUCCCUGGACGCUAAUUAUGAGGGAGGCGUGUAGCUUCUUAUCAUUGUAACUAUGUUAUUUAGAAAUAAAACGGGAGGCAGGUUUGCCUAAUUCCCAGCUUGAUUUUUCUCUUGGCUGAGUCAACAGAGGAUUGAGCAUCA
B21: chr5:122065063:122065164:-|3pUTR|ENSG00000113083|msi1|FALSE|unique (ssRNA)
RNA: GGGAGUUCUACAGUCCGACGAUCUCAACUGGCGGAUAUAGCGGUACAUAUGAUCCUUAGCCACCAGGGCACAAGCUUACCAGUAGACAAUACAGACAGAGCUUUUGUUGAGCUGUAACUGAGCUAUGGAAUAGCUUCUUUGAUCAACAGAGGAUUGAGCAUCA
B22: chr6:21593967:21594078:+|5pUTR|ENSG00000124766|unk|FALSE|bound_elsewhere (ssRNA)
RNA: GGGAGUUCUACAGUCCGACGAUCUUAGUGCCGAUUCCGCCCACAGAGAGUCCUGGAGCCACAGUCUUUUUUGCUUUGCAUUGUAGGAGAGGGACUAAGUGCUAGAGACUAUGUCGCUUUCCUGAGCUACCGAGAGCGCUCGUGCAACAGAGGAUUGAGCAUCA

Some of the results follow.

This test deals with T1, UNK ZnF1-6 (called full-length). Nature of the test: nsRBNS (natural sequence RNA bind-n-seq); RBNS binding buffer (assumed for nsRBNS): 25 mM Tris pH 7.5, 150 mM KCl, 3 mM MgCl2, 0.01% Triton X-100, 500 ug/ml BSA, 20 U/ml SUPERase-In, 4 C; UNK is unkempt and MSI1 is Musashi-1; names of the RNAs are library labels; protein concentration not given here; high values mean tight binding.
Take B1: the binding signal was determined as 0.479 enrichment R.

Regarding B2, the binding signal was determined as 0.508 enrichment R.

In the case of B3, the binding signal stood at 0.855 enrichment R.

For the molecule B4, the binding signal turned out to be 1.15 enrichment R.

For the molecule B5, the binding signal worked out at 0.614 enrichment R.

Take B6: the binding signal was 0.643 enrichment R.

B7: the binding signal was 0.75 enrichment R.

Turning to B8, the binding signal was 0.342 enrichment R.

For the molecule B9, the binding signal is 0.612 enrichment R.

Consider B10, for which the binding signal amounted to 0.342 enrichment R.

For B11, the binding signal was found to be 1.53 enrichment R.

Molecule B12 gave a binding signal of 0.894 enrichment R.

On to B13, for which the binding signal is 0.735 enrichment R.

The molecule B14 had a binding signal of 0.429 enrichment R.

For the molecule B15, the binding signal stood at 0.871 enrichment R.

For the molecule B16, the binding signal stood at 0.66 enrichment R.

For B17, the binding signal amounted to 0.754 enrichment R.

In the case of B18, the binding signal is 1 enrichment R.

In turn, B19 had a binding signal of 0.507 enrichment R.

B20 had a binding signal of 1.75 enrichment R.

As to B21, the binding signal was 0.535 enrichment R.

B22 had a binding signal of 0.815 enrichment R.

The values are drawn from article PMC12136788.
